Several values for one entry are separate records, joined by “and”; a condition that tells them apart may be missing. Identical values can stand only once. Inconclusive means that the source gave no clear call. Such entries were picked first, then a sample of the others. Potencies beside an inconclusive call are fits to weak or partial responses and may not hold up. Activity calls are given as the source filed them. The call rests on the fitted dose curve; in most records, active means well fitted cell-killing curve with a large enough effect in the repeat runs; inconclusive means weak or mixed curves, or effect the other way; inactive means no such curve, though single readings can be large or run the other way.
Experiment: qHTS assay to identify small molecule antagonists of the sonic hedgehog signaling (Shh) pathway - cell viability counter screen (AID 1259367); further: nearly all actives have a fitted effect of over 55% in size
Conditions: NIH/3T3 Gli1-Luc viability, CellTiter-Fluor, 24 h; series mostly up to 92.4 µM; viability change, negative = cytotoxic: at the top concentration
Excerpt: National Center for Advancing Translational Sciences [NCATS]
NIH Chemical Genomics Center [NCGC]
U.S. Environmental Protection Agency [EPA]
National Institutes of Environmental Health Sciences [NIEHS]
National Toxicology Program [NTP]
U.S. Food and Drug Administration [FDA]
The sonic hedgehog (Shh) pathway is essential for normal embryonic development. Dysregulation of the Shh pathway can cause severe developmental defects in organs. Therefore chemicals that interfere with the pathway are potential developmental toxicants. A cell line designated 3T3Gli1-Luc (DMB/OARSA/CFSAN/FDA, Laurel, MD), a NIH/3T3 derived clone containing stably integrated Gli1-Luc reporter is used to detect chemical interference of the Shh pathway, by changes in the expression of the firefly Luc gene under the control of the Gli1 transcriptional response element. This cell line was used to screen Tox21 libraries for identifying and prioritizing the potential developmental toxicants that interfere Shh pathway. Conditioned medium-stimulated mode was used to screen for chemicals inhibiting Shh signaling. The cytotoxicity of the compounds was tested in parallel by measuring the cell viability using CellTiter-Fluor assay system (Promega, Madison, WI) in the same wells.
Tox21 Assay Protocol Summary:
3T3 Gli1-Luc cells were dispensed at 2,000 per well in 5uL of culture medium into white solid bottom 1536-well plates (Greiner Bio-One, Monroe, NC) using a Multidrop Combi (Thermo Scientific, Waltham, MA) dispenser. The assay plates were incubated at 37 C and 5% CO2 for 4hr, and then 23nL of compounds dissolved in DMSO and positive control were transferred using a Pintool station (Wako, San Diego, CA). The compound transfer was followed by the addition of 1ul conditioned medium or assay buffer using two separate tips of Flying Reagent Dispenser (FRD, Aurora Discovery, San Diego, CA). The assay plates were incubated at 37C and 5% CO2 for 24hr. For viability read, after 23hr of compound treatment, 1uL of CellTiter-Fluor reagent (Promega Corporation, Madison, WI) was added to each well of the assay plates using Flying Reagent Dispenser (FRD, Aurora Discovery, San Diego, CA) and incubated the assay plates at 37C for 1hr. The fluorescence signal was quantified using a ViewLux plate reader (Perkin Elmer, Shelton, CT).
On the % scale 0 is the no-effect control and ±100 the full control effect; potency means the concentration at half of the fitted maximal effect; tags describe the fitted curve by direction and shape.

SMILES	Potency	viability change, negative = cytotoxic
CC1=C(/C=C/C(C)=C\C=C\C(C)=C\C(=O)O)C(C)(C)CCC1	inconclusive: 34.4 µM [cytotoxic, partial curve]	–
CCCCCCCCCCO[C@@H]1O[C@H](CO)[C@@H](O)[C@H](O)[C@H]1O	–	inactive: 2.1%
CN1CCN(Cc2cc(-c3ccc4[nH]c(=O)oc4c3)co2)[C@@H](c2ccc(F)cc2)C1	inconclusive: 9.32 µM [cytotoxic, full curve]	–
CCCCN1CCCC1C(=O)Nc1c(C)cc(C)cc1C (stereo not given)	inconclusive: 11.9 µM [cytotoxic, partial curve, poor fit]	–
CCN(CC)C(=O)/C(C#N)=C/c1cc(O)c(O)c([N+](=O)[O-])c1	inconclusive: 23.7 µM [cytotoxic, partial curve]	–
O=S(=O)(c1ccc(OCc2ccccc2)cc1)c1ccccc1O	inconclusive: 68.6 µM [cytotoxic, single point]	–
CCCCC(CC)COC(=O)c1ccccc1O (stereo not given)	–	inactive: 0.0289% [at 42.5 µM]
CCOC(=O)CCC(=O)OCC	–	inactive: 1.28%
O=C(/C=C/c1ccc(O)c(O)c1)O[C@@H](C(=O)O)[C@@H](OC(=O)/C=C/c1ccc(O)c(O)c1)C(=O)O	inconclusive: 38.5 µM [cytotoxic, partial curve]	–
Cc1ccc(N(CC2=NCCN2)c2cccc(O)c2)cc1	inconclusive: 29.8 µM [cytotoxic, partial curve, poor fit]	–
CC(C)(c1cc(Br)c(OCC(Br)CBr)c(Br)c1)c1cc(Br)c(OCC(Br)CBr)c(Br)c1 (stereo not given)	–	inactive: 5.43% [at 42.5 µM]
CN(C)C(=O)COC(=O)Cc1ccc(OC(=O)c2ccc(N=C(N)N)cc2)cc1	–	inactive: -1.62% [at 42.5 µM]
CC(C)(C)c1cc(CO)cc(C(C)(C)C)c1O	inconclusive: 55.5 µM [cytotoxic]	–
Nc1ccc2cc(S(=O)(=O)O)cc(O)c2c1N=Nc1ccccc1C(F)(F)F	inconclusive: 30.6 µM [cytotoxic, partial curve]	–
O=C1[C@H]2CCCC[C@H]2C(=O)N1CCCCN1CCN(c2nsc3ccccc23)CC1	inconclusive: 23.7 µM [cytotoxic, partial curve]	–
O=C(O)c1ccccc1[N+](=O)[O-]	–	inactive: -0.427%
Cn1sccc1=O	inconclusive: 68.6 µM [cytotoxic, single point]	–
OCCN1CCN(CCCN2c3ccccc3C=Cc3ccccc32)CC1	inconclusive: 15 µM [cytotoxic, partial curve]	–
C=C(C)C(=O)OCCCCCCCCCC	active: 54.9 µM	–
NC(Cc1ccc(F)cc1)C(=O)O (stereo not given)	inconclusive: 3.73 µM [cytotoxic, partial curve, poor fit]	–

SMILES	Potency	viability change, negative = cytotoxic
Cc1ccc(Cl)cc1N	–	inactive: -5.62%
CC1=Nc2ccc3ccccc3c2C1(C)C	inconclusive: 38.6 µM [rising, single point]	–
Nc1nc(Cl)nc2c1ncn2[C@H]1C[C@H](O)[C@@H](CO)O1	–	inactive: -5.29%
N[C@H]1C(O)O[C@H](CO)[C@@H](O)[C@@H]1O (stereo not given in full)	–	inactive: 0.834% [at 42.5 µM]
Nc1ccc2c3c(cccc13)-c1ccccc1-2	inconclusive: 9.79 µM [rising, partial curve]	–
CO[C@@]12[C@H](COC(N)=O)C3=C(C(=O)C(C)=C(N)C3=O)N1C[C@@H]1N[C@@H]12	inconclusive: 11.9 µM [cytotoxic, partial curve]	–
Nc1ccc2c(O)cc(S(=O)(=O)O)cc2c1	inconclusive: 21.7 µM [cytotoxic, partial curve] and inconclusive: 77 µM [cytotoxic, single point]	–
CC(C)NCC(O)c1ccc(O)c(O)c1 (stereo not given)	inconclusive: 2.4 µM [cytotoxic, single point] and inconclusive: 48.6 µM [cytotoxic]	–
Oc1ccc2ccccc2c1	inconclusive: 70.3 µM [cytotoxic, single point]	–
COS(=O)(=O)C(F)(F)F	inconclusive: 25.4 µM [cytotoxic, full curve]	–
CCCCCCCCCCCCSC	–	inactive: 2.54%
CN1CCCCC1CCN1c2ccccc2Sc2ccc(S(C)=O)cc21 (stereo not given)	inconclusive: 13.3 µM [cytotoxic, partial curve]	–
O=C(Nc1ccccc1)c1ccccc1O	active: 61.1 µM	–
COc1cc2c(cc1OC)C(C(C(=O)N(CCc1ccc(OC)c(OC)c1OC)CCc1ccc(OC)c(OC)c1OC)c1ccccc1)=NCC2 (stereo not given)	inconclusive: 13.3 µM [cytotoxic, partial curve]	–
O[Si](c1ccccc1)(c1ccccc1)c1ccccc1	inconclusive: 61.1 µM [cytotoxic, partial curve, poor fit]	–
COCC(C)N (stereo not given)	inactive	–
O=C(CCCN1CCN(c2ccc(F)cc2)CC1)NC1c2ccccc2CSc2ccccc21 (stereo not given)	inconclusive: 13.3 µM [cytotoxic, full curve]	–
Cc1c(C(=O)O)c(O)cc2c1C(=O)c1c(O)c([C@@H]3O[C@H](CO)[C@@H](O)[C@H](O)[C@H]3O)c(O)c(O)c1C2=O	inconclusive: 18.8 µM [cytotoxic, partial curve]	–
CCCc1nc2c(C)cc(-c3nc4ccccc4n3C)cc2n1Cc1ccc(-c2ccccc2C(=O)O)cc1	inconclusive: 11.9 µM [cytotoxic, partial curve]	–
CC(=O)OCC1=C(C(=O)O)N2C(=O)[C@@H](NC(=O)Cc3cccs3)[C@H]2SC1	–	inactive: 1.1% [at 42.5 µM]

Reference: PubChem BioAssay (Tox21)
